# Results: the supplement of paper PMC11417369
# Some of the results follow.
# Test system: PF3D7_0420300 AP2 domain 1 (GST-tagged)
# Experiment: gcPBM binding intensity (ln(normalized median fluorescence intensity)); higher = stronger DNA binding
# Outline: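 DNA-binding domains from P. falciparum, fused to GST and produced in E. coli, were put on an Agilent 4 × 180k double-stranded probe array for 1 h in 1× PBS holding 1% milk, 0.2 mg/ml BSA, 0.5% salmon testes DNA and 0.03% Triton X-100. Probes were primer-extended, 36 bp long and drawn from intergenic genomic regions, with negative controls included. After Alexa488 anti-GST antibody detection and a 488 nm scan, binding intensity was set as the highest Masliner-normalised natural-log median intensity across replicate spots of either probe orientation.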
row,Sequence,gcPBM binding intensity (ln)
1,TAAATTAAAAAACACACACACAAAAAAAAAAAAAAA [CACACA_site2263],10
2,CAAAAGGATGTGGGATGTACATATGAAAAAAAAAAA [XGTACX_site8059],9.24
3,TTTTATTTATAATACTCACACATTTATATTACATAT [CACACA_site6000],9.46
4,TTGTATGTAAAAAAGTGTACATGAGTGATTATATAA [XGTACX_site8166],9.36
5,GGTCTTTTTTTCAAAAGTACATAAATAAAAAAGGTT [XGTACX_site2894],9.09
6,ATTACTAAAAAATATAAACACACATATATTTTACAT [CACACA_site8633],9.6
7,TAAATTTAAAAATCTGCACACATTTAAAAAAAAAAA [CACACA_site2515],9.15
8,GAAAATTTAAAAAGAGTGCATTATATGTTTGAATAT [GTGCAC_site9564],9.19
9,CTTTTTTTCTTTCCAAGTACTAAATTCATACAAATT [XGTACX_site2605],9.08
10,AATAAAATAATAAAAGCACACAAGAATACACCCAAA [CACACA_site7919],10.1
11,TTTAACGAATAAAAATGTACAAATTTATACATTTAT [XGTACX_site2805],9.01
12,ATAGGTAAAAAGTATACACACGTTGACACATTCTTT [CACACA_site4794],9.47
13,AAATAATACAAGGGCTGTACATAAAAAGGAGTATAT [XGTACX_site839],9.81
14,ATTTTAAAAAGGATAGTGCAAATGTTAAAATAGGAC,9.64
15,AGAAAAAAAAAAAGTACACACATATAACATATAGAT [CACACA_site7410],9.97
16,ATTTATTTTCTGTGTACACATATGTTGGGTATTTTA [CACACA_site5902],9.63
17,GTATATATCCCAAAATGTACATAATTTATTATTTAT [XGTACX_site2842],9.28
18,ATCTCTTATATATTCACACACATATATATAATTATA [CACACA_site1502],9.78
19,AAATATAATAACGAACGTACTTATTATAATTTGTAA [XGTACX_site2342],8.98
20,TATTTATATATATGATGTACATAAGGTGTAATGTTA [XGTACX_site5591],9.2
21,TATTTACATACAAAATGTACAAAAATATATTTTTTT [XGTACX_site888],9.08
22,TACATGAATATTTATACATGCACACTAAAATAAAGA [TGCATGCA_site611],9.35
23,ATATATATTTAATGTTGTACATAAAAAATATATAAA [XGTACX_site7774],9.01

row,Sequence,gcPBM binding intensity (ln)
1,AAACATATATACATATGTACATATATACATATATGT [XGTACX_site5779],9.29
2,TATAAACCTTTTTGCACGCACACAAAAAAAAAATAA [CACACA_site168],9.26
3,TTCGGAAAAATTAAAGCACACAAAAAAAAATAAAAA [CACACA_site8296],9.45
4,GATTAACAACATATTAGTACATATATTATATATATA [XGTACX_site7646],9.31
5,GACTATAATGTTTTGGTGCGTCATGTTATGGTCATC,9.3
6,CATATTTTATTATATACATGCAATTTTAATATATAT [TGCATGCA_site544],9.17
7,TATAATTTAACGACATGTACATATAAAAAAATATTT [XGTACX_site2395],9.22
8,ATACACATTCTTCCGACATAATAAGAAAAAGAAAAA [CACACA_negctrl_site9],9.13
9,AAAATGTATTCTCTCATGCACACTTTCTTTAAGGGA [CACACA_site2196],9.08
10,TGTAGATTTTGTAACACACACATATAAATACCTATA [CACACA_site7183],9.73
11,TTATTTATATTTTTTTGTACACATATTGTATACATA [XGTACX_site1178],9.31
12,CTTAAATTGAAATGTTGTACAAAGTAAAAACAATGA [XGTACX_site2123],9.36
13,TATTAACACAATAGCGCACACTTTTAATATTTTATA [CACACA_site1617],9.38
14,AAAGAATACAAAATTGCACACATATTGTGAAAATGT [CACACA_site9327],9.67
15,ATATAATGTTGTAATAGTACTTTTTTCATATAAATA [XGTACX_site2666],9.21
16,TTTTATTATTAATTTCTTTTTTCTCATCACTTTCAA [XGTACX_negctrl_site117],8.96
17,TTTACAAAAAATTATACACACACGTACATATAAATA [CACACA_site945],9.67
18,ATATATATAAAATATACACACATACTGTTCATTTAA [CACACA_site6149],9.5
19,TAATTTATGAGTAATACACACACTTGTGGATATATT [CACACA_site3790],9.5
20,TACGTTCTAATATATACACACCTGGTATTAATTATG [CACACA_site5260],9.63
21,AAATATTATTTATTTACACACCAATCTTCTTTTCTT [CACACA_site3990],9.57
22,GAAAAATTTTTATATGTGCACATGTTATATATAATT [GTGCAC_site9742],9.28
23,CGTATATATATATACACACACATATATATATGTAAA [CACACA_site195],9.69

row,Sequence,gcPBM binding intensity (ln)
1,TATTTCCATTCATAATTTTGTAGAATATATAACCGT [CACACA_negctrl_site1531],9.11
2,AAAAACTTAATATTCACACATATATATATATATATA [CACACA_site5240],9.14
3,AAAAAAAAAAATTACACACATACATATAATAATAAT [CACACA_site2193],9.85
4,AAAAAAAAAAATCCAGTGCATATATTTTTTACATAT,9.18
5,ATTACATTAATAAGAGTGCATTATATAAGTTTTATG,9.2
6,TCAATCATCTTATATAGTACACATAAAAGTATTATA [XGTACX_site8513],8.99
7,GACAAAATGATAGGGACACACAATATCAATGTTTAA [CACACA_site765],9.46
8,CCACTAATAAATATTACACACATATAGATTTATATT [CACACA_site7465],9.51
9,CAAAAGGATATGCACACACACACACGGATATTTATA [CACACA_site7099],10.2
10,TTTTGTTATTAGAGGGTGCTTATAATGAACTCCTAC,9.05
11,TTTTGTTTTAATTTTATTTGATTTTATTTGATTTAT [CACACA_negctrl_site692],9.43
12,ATATTTATATGGTTTGCACACATAACAACTATGGTT [CACACA_site3631],9.57
13,ATATAACATATCAATTGTACGTATTGATAATATATA [XGTACX_site2504],9.19
14,AGGCACACAAACATATGTACACATATATATATATAT [XGTACX_site4723],9.42
15,TTTATTGAACGTACACATATATATATGTATATATTT [TGCATGCA_negctrl_site141],9.42
16,TTATTTTTTTTATATATATGTATAAATATATATATA [XGTACX_negctrl_site441],9.18
17,AAAATTTTTAAATATTGTACTATTTATTTTTAGCAT [XGTACX_site6190],9.12
18,TATATATATATATTTACACACATTCATATAAATTCA [CACACA_site3532],9.32
19,AATATGAACGGACACACACACACAAAAAAAAAAAAA [CACACA_site5154],10.1
20,GCCTACAGACTTAGTAGTACATGAGAAGATATATAT [XGTACX_site2269],9.06
21,TATATTTATTTATATACACACACTTGTATAAAAAAT [CACACA_site2036],9.4
22,TATATACAGAAACACACACACACATATATATATATA [CACACA_site2247],10.1
23,TATATCAAAATACATACACACATTTGTATATACATT [CACACA_site2696],9.64

row,Sequence,gcPBM binding intensity (ln)
1,TTAAATATTTTTAGAGTGCATGTAATAAAAATATAA [GTGCAC_site9414],9.08
2,TATCTATATGGGAACACACTCATAAATATATATCTA [CACACA_site4815],9.3
3,AAAATAAATAAATACACACACACGAATATATATATA [CACACA_site1683],10.2
4,TTTTAAAAATAATAAATAAATAAAATTGAAGTTCCA [CACACA_negctrl_site305],8.83
5,TTTTTTTTGTTGTTGTTGCACTTGATAGGAATGGCT [GTGCAC_site9701],9.18
6,AAAAAAAACAGACACACACACAAATACATACACAAA [CACACA_site705],10
7,CCATTTACAAAAAGGAGTACACAAATATATGTTTAA [XGTACX_site649],9.12
8,TACTTACAGATAATAACACACAAGAAAAAAATAAAA [CACACA_site4716],9.8
9,ATATAAATGTATATGACACACATATATATATATATA [CACACA_site889],9.22
10,TACAAATATGGACACACACACATATTTATATTTATA [CACACA_site6420],10
11,AAAAAACAGACATACACACACACACGGATATTTATA [CACACA_site7570],10.3
12,AATATTTATGGGTGCACACAAACATACAGATATATA [CACACA_site5810],9.6
13,TATATATATATCAAGTGTACTTGTGTTTGTAATATT [XGTACX_site8854],9.41
14,TATTATTTTTCCTAATGTACAAAATATATATTTTTA [XGTACX_site2727],9
15,TTTGAATATATAAATATGCACACTTCTATTATAAAT [CACACA_site3359],9.18
16,TTCTTATATAAATACACACACAAAATATCTACAATG [CACACA_site4568],9.9
17,AATCGATTGGATAATATTTTTTCTCTTAATTTTTTG [GTGCAC_negctrl_site165],9.08
18,AAAAAAATAAAAAGGAACGTCTATAGTTAATTTATT [CACACA_negctrl_site919],9.38
19,ATGTTGCACAATGTTACACACACAATATATATCGTT [CACACA_site4833],10
20,TATATTAGAAGAAATTCACACATTCATGTAATCTTA [CACACA_site4706],9
21,TAACATATTATATATACATGCATACGTGAACTAATC [TGCATGCA_site888],9.32
